# In all, about 33,000 sequences were measured (“E-score (-0.5 to 0.5)”: median about -0.056, highest 2% from about 0.38 on). The list shows a part of the results.
# Molecular target: Stb4 (UniProt P50104)
# Assay: PBM E-score (8-mer binding enrichment) (E-score (-0.5 to 0.5)); higher = stronger / more preferred TF binding; most listed sequences are background and not binding sites
# Details: protein concentration: 200 nM; construct: GST-DNA-binding domain
# Summary of the method: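 Yeast transcription factors carrying a GST tag, as full-length proteins or DNA-binding domains, were produced by PURExpress in vitro transcription/translation. About 100-200 nM protein was applied to universal all-10-mer Agilent arrays, double-stranded by primer extension on fresh or once-stripped slides. Bound protein was detected with fluorescent anti-GST, and scans were normalised with masliner. The Universal PBM Analysis Suite gave each ungapped eight-base word, pooled with its reverse complement, an E-score, a modified Wilcoxon-Mann-Whitney statistic.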
row,Sequence,PBM E-score
1,AGAAGCCA,0.0781
2,ATCGATGC,0.0219
3,CCCGTCAC,0.181
4,CCGCGAAA,0.155
5,CAAAGCTA,-0.187
6,ACGCCAAA,-0.187
7,AGCCGTGC,0.134
8,ACTTAATA,0.125
9,GGATTGAC,0.0657
10,ATGCGGAA,0.332
11,CCACACGG,0.134
12,GTCGTACA,-0.0482
13,GAGATTTA,0.00895
14,CGGCACAG,0.328
15,AACACTAC,0.0356
16,AGAATCGC,0.0089
17,CACTATGC,-0.0475
18,AAGTAAAC,0.0883
19,GTCGCCAC,-0.126
20,ATGGATAC,0.0478
21,AAACAAAG,-0.0221
22,TCTGGTAA,-0.116
23,GAGAGGCA,0.113
24,AGGCACCG,0.0494
25,CCACACCA,-0.223

row,Sequence,PBM E-score
1,CGTGGCAA,-0.14
2,TCATTTAA,-0.0543
3,CGATAGTC,-0.112
4,AGAACTCT,-0.301
5,GTACCGAC,0.279
6,ATACCGGC,0.248
7,CTGTTTAA,-0.0736
8,AATCGCAA,-0.048
9,AGTACGGG,0.00186
10,TAAGCTAA,-0.0234
11,CTTTCGGC,0.386
12,CCTTCGTA,-0.121
13,CACATCTG,0.0198
14,ACAGTAAA,-0.187
15,AAGGGCAG,-0.0968
16,CGACTTAC,0.22
17,GGATTGGA,0.101
18,GAGTGACC,-0.0802
19,GGCAATTA,0.0261
20,ACGAGTGC,-0.213
21,ACTAAACC,0.176
22,CCCACCTA,-0.0843
23,TATAACGA,-0.157
24,ATCGGCTA,0.403
25,CAGAATCC,0.0421

row,Sequence,PBM E-score
1,CCGTTGAA,-0.0435
2,CATATAGC,0.118
3,GCGTAACC,-0.00946
4,ATGGTTAC,-0.128
5,CGCCACCA,-0.139
6,GGTCCCAC,0.058
7,GGGTGGCA,0.00667
8,CGACCCGA,0.4
9,AAGAATGT,-0.215
10,CCAGGCGG,0.0927
11,AGACGCGC,-0.143
12,AGGTCGAA,-0.297
13,CTGCAGGA,-0.136
14,CATACACG,-0.00889
15,CCATAAAC,-0.142
16,GTAAGCGA,-0.188
17,CGAGCTCA,0.228
18,CAGGTAAG,-0.244
19,AGGCGGTA,-0.135
20,AATAGCGT,0.0361
21,GAATGACA,-0.0727
22,TCCGAGAA,0.455
23,CTCTTCCA,0.0511
24,ACATTATA,-0.0577
25,GCTAATAC,0.0852

row,Sequence,PBM E-score
1,ATTACAAG,-0.216
2,CACGGGGA,0.121
3,ATGAATCA,-0.122
4,GACAAGTC,-0.119
5,ATAACGGG,0.106
6,TTGATAAA,-0.105
7,CCGTATCA,0.236
8,CAGCGAAA,-0.0442
9,ATTAAGGC,-0.0428
10,CACTTTAC,-0.0166
11,AGGACGCC,-0.0764
12,CTAATCAA,0.0532
13,CGTCTAAC,0.0342
14,GGTTACGA,-0.0994
15,ATGGGGTG,-0.0849
16,GTGGCCTA,-0.12
17,CCCTTTCA,-0.157
18,AATATCCT,-0.0556
19,ATCCGGTC,0.302
20,GTCCATAA,-0.288
21,CCGGTCAG,0.0903
22,GGGGCAAA,0.108
23,GCCGAAGA,0.362
24,GCCTAGCA,-0.0769
25,ACTGCAAC,-0.0743

row,Sequence,PBM E-score
1,GACATGTA,-0.0526
2,AAATGCCT,0.00392
3,CATCTAAA,0.0673
4,CAGAGTAC,-0.0331
5,ACGTCTTA,-0.197
6,CACGCATA,-0.194
7,AGAATCTG,0.00586
8,GCTAAAAA,-0.143
9,CCGCGGCC,0.219
10,TAACTAAA,-0.158
11,GACGGGCC,0.126
12,CGCTGCCG,0.226
13,AGCGTTTA,-0.17
14,TGCCTAAA,-0.168
15,CAACGCTG,-0.204
16,ACTAGGTG,-0.17
17,AGCGCCCA,-0.301
18,GAAGTGAA,-0.0653
19,GTCCGCTA,-0.0111
20,GCGCCGCA,0.0423
21,ATTAGGTA,-0.25
22,GCATAGGA,-0.171
23,ATCTTACC,0.0649
24,ATCTCCCA,-0.0777
25,GCGCATAA,-0.139

row,Sequence,PBM E-score
1,CAGGCATA,-0.283
2,GATAGCAC,-0.0151
3,GACTGCTC,-0.0224
4,GAAGCCGC,0.193
5,CGGAACAG,0.427
6,TCCCACCA,-0.0168
7,AAGTACGA,0.111
8,GGGACGGA,0.254
9,AGTGCTCC,0.0755
10,AACCGATT,0.317
11,CGAACCAC,0.167
12,GAGTAATC,-0.0725
13,AAAATGTT,-0.163
14,GTAAATCA,0.126
15,GCTGGACC,-0.00284
16,ATGTATCA,-0.151
17,AGAATCAG,-0.0131
18,CAATGGAC,-0.136
19,CTCGGGCC,0.343
20,ACTTAACT,-0.00924
21,CTGGGCTC,-0.147
22,GAGCGAAA,0.0769
23,CGAGTCCA,0.0087
24,CCCAGACC,-0.161
25,ATTTAGCG,-0.0337

row,Sequence,PBM E-score
1,ACCACAAC,0.0425
2,GACTGCTA,-0.253
3,CCGCCCAG,0.114
4,ACTGCATA,-0.135
5,CACACTAA,-0.194
6,GTGAGCGA,-0.053
7,AGGCTGAA,-0.207
8,AAGGGTGA,-0.111
9,CCGTCTCC,0.0898
10,CAGGAGCG,-0.122
11,GACCGTGC,-0.0904
12,ACTCGTAT,-0.0951
13,AGAGACCC,-0.0488
14,AGCACCGG,0.193
15,GGTGTAGA,-0.0413
16,GCCTGGCA,-0.191
17,AATAAAAT,-0.26
18,ATCTCCAC,-0.0508
19,AAGCGTTC,-0.0336
20,GATTCCCA,-0.109
21,AGACATCT,-0.148
22,AGCATCCT,0.0794

# From the supplement of paper PMC3334620
